Laboratory results taken from the supplement of paper PMC7826260.
Some of the results follow. The data describe in vitro nicking of single-stranded DNA by Rep domains (1 h at 37 °C, 3 µM enzyme); the outer parts of the 90-letter strands are left off. Numbers give uncut DNA relative to the enzyme-free pool, as log2; the lower, the more was cut; hits are not called. Shares of all reads are compared, so uncut sequences can rise above 0 when many others are cut.

How the values were obtained:
Test in all cases: uncleaved DNA left, log2 of reads against the no-enzyme library (log2 ratio); higher = less cleavage (more negative = more Rep cleavage of the k-mer); sequences stand for … in CTCGTCCG…ACCGGAGA
[1] = test system: T1, Rep nickase domain of Muscovy duck circovirus
T1 sequence (residues 1-111, tag not shown): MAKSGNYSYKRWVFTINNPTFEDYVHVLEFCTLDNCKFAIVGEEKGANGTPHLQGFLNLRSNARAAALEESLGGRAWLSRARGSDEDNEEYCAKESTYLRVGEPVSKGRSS
Procedure: (§1)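 A pool of 90-nt single-stranded DNAs with seven random bases just before the constant AC of the nick site (name = the seven bases) was cut by 3 µM recombinant His6-SUMO-tagged Rep nickase domain (300 nM DNA, 50 mM HEPES pH 8.0, 50 mM NaCl, 1 mM MnCl2, 1 h, 37 °C, three replicates). Uncut DNA was amplified and sequenced.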

[2] = test system: T2, Rep nickase domain of banana bunchy top virus
T2 sequence (residues 1-94, tag not shown): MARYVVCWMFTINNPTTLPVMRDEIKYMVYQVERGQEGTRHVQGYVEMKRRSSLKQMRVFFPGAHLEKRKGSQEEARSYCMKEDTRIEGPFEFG
Procedure: as §1

[3] = test system: T3, Rep nickase domain of cabbage leaf curl virus
T3 sequence (residues 1-116, tag not shown): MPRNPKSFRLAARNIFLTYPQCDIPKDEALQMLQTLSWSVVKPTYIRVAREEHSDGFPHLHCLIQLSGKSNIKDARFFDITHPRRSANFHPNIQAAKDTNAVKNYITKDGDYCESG
Procedure: as §1

[4] = test system: T4, Rep nickase domain of chickpea chlorotic dwarf virus
T4 sequence (residues 1-124, tag not shown): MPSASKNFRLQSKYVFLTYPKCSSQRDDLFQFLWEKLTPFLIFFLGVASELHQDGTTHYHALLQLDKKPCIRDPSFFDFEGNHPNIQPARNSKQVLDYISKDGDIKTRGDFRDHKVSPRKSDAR
Procedure: as §1

[5] = test system: T5, Rep nickase domain of faba bean necrotic yellows virus
T5 sequence (residues 1-98, tag not shown): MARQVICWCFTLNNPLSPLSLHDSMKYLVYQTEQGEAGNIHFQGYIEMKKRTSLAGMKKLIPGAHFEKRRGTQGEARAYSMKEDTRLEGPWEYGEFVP
Procedure: as §1

[6] = test system: T6, Rep nickase domain of maize striate mosaic virus
T6 sequence (residues 1-117, tag not shown): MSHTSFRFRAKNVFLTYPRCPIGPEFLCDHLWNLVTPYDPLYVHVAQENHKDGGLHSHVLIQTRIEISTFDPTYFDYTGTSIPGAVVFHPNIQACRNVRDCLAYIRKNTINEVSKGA
Procedure: as §1

[7] = test system: T7, Rep nickase domain of porcine circovirus 2
T7 sequence (residues 2-116, tag not shown): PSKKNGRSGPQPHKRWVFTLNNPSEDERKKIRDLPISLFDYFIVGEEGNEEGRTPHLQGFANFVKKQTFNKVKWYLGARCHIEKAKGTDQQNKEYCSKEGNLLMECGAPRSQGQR
Procedure: as §1

[8] = test system: T8, Rep nickase domain of tomato golden mosaic virus
T8 sequence (residues 1-124, tag not shown): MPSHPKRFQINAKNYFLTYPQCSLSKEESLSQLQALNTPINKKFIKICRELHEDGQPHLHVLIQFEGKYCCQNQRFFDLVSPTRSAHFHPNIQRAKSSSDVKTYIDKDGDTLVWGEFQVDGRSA
Procedure: as §1

[9] = test system: T9, Rep nickase domain of tomato yellow leaf curl virus
T9 sequence (residues 1-136, tag not shown): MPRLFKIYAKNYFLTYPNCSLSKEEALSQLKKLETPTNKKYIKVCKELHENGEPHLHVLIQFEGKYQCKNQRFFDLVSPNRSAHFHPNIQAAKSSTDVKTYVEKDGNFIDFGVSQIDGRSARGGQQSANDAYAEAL
Procedure: as §1

[10] = test system: T10, Rep nickase domain of wheat dwarf virus
T10 sequence (residues 1-137, tag not shown): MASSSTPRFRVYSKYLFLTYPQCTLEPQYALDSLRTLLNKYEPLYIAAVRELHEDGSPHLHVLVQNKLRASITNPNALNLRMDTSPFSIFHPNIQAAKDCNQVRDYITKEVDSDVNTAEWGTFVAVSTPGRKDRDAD
Procedure: as §1

| Sequence | uncleaved DNA left (log2) [1] | uncleaved DNA left (log2) [2] | uncleaved DNA left (log2) [3] | uncleaved DNA left (log2) [4] | uncleaved DNA left (log2) [5] | uncleaved DNA left (log2) [6] | uncleaved DNA left (log2) [7] | uncleaved DNA left (log2) [8] | uncleaved DNA left (log2) [9] | uncleaved DNA left (log2) [10] |
| --- | --- | --- | --- | --- | --- | --- | --- | --- | --- | --- |
| TTTTGCA | -0.0684 | -0.102 | -0.771 | -0.957 | -0.04 | -1.23 | 0.00103 | -0.123 | 0.00701 | -0.0862 |
| TTCCTGA | 0.0646 | 0.0345 | 0.244 | 0.384 | -0.0698 | 0.699 | -0.00313 | -0.0352 | 0.00438 | -0.0238 |
| TGCAAAC | -0.0654 | -0.0426 | 0.241 | 0.429 | 0.082 | 0.609 | 0.0431 | 0.00756 | -0.0363 | 0.0475 |
| GGTCATA | 0.103 | 0.159 | 0.733 | 1.68 | 0.058 | 2.14 | 0.155 | -0.00369 | 0.0821 | 0.122 |
| TACCAGT | 0.017 | 0.0779 | -0.318 | -2.28 | 0.0109 | -0.888 | -1.22 | -0.0222 | 0.051 | -0.0699 |
| GCACCGT | -0.178 | -0.0505 | -0.29 | -0.275 | -0.0618 | -0.483 | -0.0493 | -0.0613 | -0.0876 | -0.0449 |
| TATCTAC | -0.0228 | -0.0559 | -0.0105 | -1.58 | -0.0727 | -0.12 | -0.185 | -0.0708 | 0.0362 | -0.0367 |
| CCAGGAA | 0.0642 | 0.0122 | 0.314 | 1.23 | -0.0291 | 1.35 | 0.256 | 0.121 | -0.0215 | 0.0865 |
| TTGTCGA | -0.122 | -0.204 | -0.928 | -0.646 | -0.127 | -1.17 | -0.158 | -0.243 | -0.155 | -0.196 |
| CGGGGAT | 0.161 | 0.147 | 0.598 | 1.66 | 0.211 | 2.03 | 0.223 | 0.0229 | -0.0524 | 0.148 |
| GAATTGT | -0.786 | -0.00964 | -2.85 | -2.23 | -0.123 | -1.75 | -3.22 | -1 | -0.0545 | -1.73 |
| AGATCCA | -0.0695 | -0.00665 | 0.252 | 0.506 | -0.135 | 1.55 | 0.0405 | -0.0507 | -0.0726 | -0.146 |
| AATAATA | 0.011 | -0.0691 | -0.194 | -2.89 | 0.101 | -0.682 | -0.168 | -0.029 | 0.0425 | 0.0362 |
| GCATAAC | 0.0913 | 0.156 | -0.122 | -0.553 | 0.0626 | -0.378 | 0.183 | 0.013 | -0.00152 | 0.0154 |
| TATAGAT | 0.0425 | 0.0167 | 0.107 | -0.683 | 0.035 | 1.04 | -0.178 | 0.00535 | -0.0196 | 0.0739 |
| ACTCGAA | -0.0515 | 0.00685 | -0.242 | -0.19 | 0.0978 | -0.886 | 0.131 | 0.0709 | -0.0396 | 0.0299 |

| Sequence | uncleaved DNA left (log2) [1] | uncleaved DNA left (log2) [2] | uncleaved DNA left (log2) [3] | uncleaved DNA left (log2) [4] | uncleaved DNA left (log2) [5] | uncleaved DNA left (log2) [6] | uncleaved DNA left (log2) [7] | uncleaved DNA left (log2) [8] | uncleaved DNA left (log2) [9] | uncleaved DNA left (log2) [10] |
| --- | --- | --- | --- | --- | --- | --- | --- | --- | --- | --- |
| CTCAGTG | 0.051 | 0.0507 | -0.674 | -0.639 | 0.0216 | -1.33 | 0.225 | -0.0478 | 0.202 | -0.0239 |
| CCATTTC | 0.0421 | 0.0815 | -0.293 | -0.546 | 0.0445 | -1.06 | 0.154 | -0.0139 | 0.167 | 0.0284 |
| TCAAGGG | -0.0719 | -0.0349 | 0.00944 | 0.264 | -0.109 | -0.396 | 0.0597 | -0.021 | 0.00816 | -0.0255 |
| CAGTGCG | -0.0452 | -0.13 | -0.0423 | 1.36 | 0.165 | 1.35 | 0.0607 | -0.162 | 0.0674 | -0.2 |
| GGCGGAT | 0.044 | 0.0638 | 0.48 | 1.43 | 0.0209 | 1.94 | 0.17 | 0.17 | -0.0654 | 0.0371 |
| ACAATTT | 0.00529 | -0.0391 | -0.365 | -2.92 | -0.122 | -1.05 | -0.134 | 0.00775 | -0.22 | -0.0691 |
| TTTTGGT | -1.57 | -0.0408 | 0.13 | -0.176 | 0.0288 | -0.18 | -1.23 | -0.0316 | 0.0199 | -0.0203 |
| CGGTGTA | -0.0126 | 0.0791 | 0.279 | 0.353 | -0.118 | 0.998 | -0.00775 | 0.0257 | 0.0259 | -0.0045 |
| GGACTAG | -0.0396 | 0.0635 | 0.536 | 1.5 | 0.00305 | 1.63 | 0.0742 | 0.0102 | 0.104 | 0.0708 |
| TGAGCGC | 0.0184 | -0.0286 | -0.445 | -0.381 | -0.0428 | -0.912 | -0.00257 | -0.0756 | -0.091 | -0.112 |
| TGGCAGC | -0.0771 | -0.0801 | 0.478 | 1.11 | -0.052 | 0.951 | 0.116 | -0.00255 | -0.0157 | 0.0287 |
| GCCGTAG | -0.0197 | 0.128 | -0.109 | 0.0481 | 0.00828 | -0.502 | 0.127 | 0.135 | 0.0582 | -0.0654 |
| AGGATCG | 0.145 | -0.145 | -0.777 | -0.636 | -0.0165 | -0.945 | 0.123 | -0.0232 | 0.0822 | -0.0805 |
| TCGTGCC | -0.191 | -0.17 | -0.239 | -0.479 | -0.0652 | -0.863 | -0.207 | -0.28 | -0.135 | -0.178 |
| GTATGAT | -0.1 | 0.137 | 0.215 | 0.863 | -0.0179 | 1.76 | -0.149 | 0.0749 | 0.0712 | 0.167 |
